Certain results were filed several times, with different values. The list is limited to them. The source may hold further records. Results that share an entry are repeated measurements (runs, samples, wells, individuals or studies). Dates in brackets are months of testing. Counts like (3×) stand for listed records that agree.
System: K24384-001-R-PDC KRAS patient-derived spheroid viability
Test: Anticancer human tumor K24384-001-R-PDC patient-derived pancreatic adenocarcinoma cell line growth inhibition [KRAS2]
Conditions: spheroids with HUVEC and MSC; for viability, T/C: stronger effect = lower value; for IC50: compound alone
From the text: Multicellular complex tumor spheroid response to RAS pathway inhibitors in combination with a targeted agents in patient-derived cell lines with oncogenic KRAS variants from multiple cancer types
A high-throughput screen of multi-cell type tumor spheroids was designed to identify active combinations of targeted small molecules and KRAS pathway inhibitors. Complex spheroids include a stromal component modeled by human endothelial cells (HUVEC) and fibroblasts modeled by human mesenchymal stem cells (MSCs). The concentration ranges selected for each drug and investigational agent were based upon clinically achievable concentrations if the clinical Cmax of the agent was known.
Compounds. The drugs and investigational agents: BI-3406 (NSC825286), BAY-293 (NSC824723), batoprotafib (TNO155; NSC825523), sotorasib (AMG 510; NSC818433), MRTX1257 (NSC819558), elimusertib (BAY 1895344; NSC800525), molibresib (GSK525762; NSC774829), temuterkib (LY3214996; NSC803410), venetoclax (NSC766270), alisertib (NSC759677), olaparib (NSC753686), talazoparib (NSC767125), erdafitinib (NSC781556), ipatasertib (NSC767898), cabozantinib (NSC761068), nintedanib (NSC756659), abemaciclib (NSC768073), docetaxel (NSC628503), trametinib (NSC758246), and sapanisertib (NSC764658) were obtained from the National Cancer Institute (NCI) Developmental Therapeutics Program Chemical Repository. The FDA-approved anticancer drug set is available from the Developmental Therapeutics Program. […] The stock solutions were prepared in dimethyl sulfoxide (DMSO, Sigma-Aldrich, St. Louis, MO, cat. D2650) at 800-fold the tested concentration and stored at -70 degrees C prior to their use. All drugs and investigational agents were tested over a range starting from a high concentration at or near the clinical Cmax and decreasing in half-log increments. If the clinical Cmax for an agent had not been determined, the highest concentration tested was 10 microM.
Cell Culture. All cells were maintained in an incubator at 37 degrees C and 5% CO2 with 95% humidity. The PDC lines were cultured according to standard operating procedures established by the NCI PDMR (https://pdmr.cancer.gov/sops/default.htm). Briefly, all PDCs were thawed and cultured in Matrigel-coated flasks prepared with a working solution of 1X Ham's F-12 nutrient mix, without supplementation (Invitrogen, Waltham, MA, cat. 11765054), 100 U/mL penicillin-streptomycin (Invitrogen, cat. 15140122), and 2.5% Matrigel (Corning Inc., Corning, NY, cat. 354248) for the first three passages. All PDCs were cultured in complete DMEM/F-12 media containing advanced DMEM/F-12 (Invitrogen, cat. 12634028), 4.9% defined fetal bovine serum, heat inactivated (HyClone Laboratories Inc., Logan, UT, cat. SH30070.03HI), 389 ng/mL hydrocortisone (Sigma-Aldrich, cat. H4001), 9.7 ng/mL human EGF recombinant protein (Invitrogen, cat. PHG0313), 23.4 microg/mL adenine (Sigma-Aldrich, cat. A2786), 97.3 U/mL penicillin-streptomycin (Invitrogen, cat. 15140122), 1.9 mM L-glutamine (Invitrogen, cat. 25030081), and 9.7 microM Y-27632 dihydrochloride (Tocris Bioscience, Bristol, United Kingdom, cat. 1254). The PDCs were cultured in complete DMEM/F12 media without 9.7 microM Y-27632 dihydrochloride for at least two passages prior to the screen. The established cell line HOP-62 was cultured in RPMI 1640 medium, HEPES (Invitrogen, cat. 22400105) with 10% defined fetal bovine serum (HyClone Laboratories Inc., cat. SH30070.03) and 2 mM L-glutamine (Invitrogen, cat. 25030081). The pooled donor HUVEC were cultured in endothelial cell growth medium 2 (PromoCell, Heidelberg, Germany, cat. C-22011) and the hMSC were cultured in mesenchymal stem cell growth medium 2 (PromoCell, cat. C-28009). For all experiments, HUVEC and hMSC were used at passages </=5, while the malignant cell lines were used at passages </=15. […]
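Further: spheroids exposed to agents for 7 days before readout.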
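Wherever viability, T/C is given: 100% = DMSO vehicle control viability.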

Row | Compound | viability, T/C (compound alone 0.1 µM) | viability, T/C (compound alone 0.316 µM) | viability, T/C (compound alone 1 µM) | viability, T/C (compound alone 3.16 µM) | viability, T/C (compound alone 10 µM) | further results
1 | CC1COCCN1c1cc(-c2ccnn2C)c2ccnc(-c3ccn[nH]3)c2n1 (stereo unspecified) | – | – | – | – | – | viability, T/C (compound alone 0.01 µM): 87.8, 93.8, 86.1, 113%
2 | CN(C)C/C=C/C(=O)Nc1cc2c(Nc3ccc(F)c(Cl)c3)ncnc2cc1O[C@H]1CCOC1 | – | – | – | – | – | viability, T/C (compound alone 0.000316 µM): 130, 99.9, 137, 110, 93.2%; viability, T/C (compound alone 0.00316 µM): 123, 88.1, 104, 94.2, 88%
3 | COc1cc(Nc2ncc3c(n2)-c2ccc(Cl)cc2C(c2c(F)cccc2OC)=NC3)ccc1C(=O)O | 68.2, 60, 60.4, 101, 81.7% | 50.2, 41.9, 52.3, 90.2, 53.3% | 54.6, 44.2, 59.3, 105, 63.4% | 56.9, 55.7, 57.4, 101, 68.5% | 61.9, 62.9, 69.6, 86.3, 89.6% | viability, T/C (compound alone 0.0316 µM): 72.2, 67.8, 75.8, 99.3, 79.5%
4 | COc1cc(OC)cc(N(CCNC(C)C)c2ccc3ncc(-c4cnn(C)c4)nc3c2)c1 | 135, 99.6, 103, 121, 118% | – | – | – | – | –
5 | CC(C)n1nc(-c2ccc3oc(N)nc3c2)c2c(N)ncnc21 | – | – | – | – | – | viability, T/C (compound alone 0.001 µM): 79.2, 110, 98.7, 92.9, 83.3%; IC50: 4.85, 7.49, 13.5, 11.7, 21.6 nM
6 | CC1(C)CCC(CN2CCN(c3ccc(C(=O)NS(=O)(=O)c4ccc(NCC5CCOCC5)c([N+](=O)[O-])c4)c(Oc4cnc5[nH]ccc5c4)c3)CC2)=C(c2ccc(Cl)cc2)C1 | – | – | – | 46.4, 35.8, 66.7, 92.9, 50.6% | – | –
7 | CNCc1ccccc1-c1csc(C(C)Nc2nc(C)nc3cc(OC)c(OC)cc23)c1 (stereo unspecified) | 100, 107, 89.4, 102, 108 (2×), 90.3, 97.3, 99.7, 97.1, 95% [2021-08] and 89.9, 79.9, 89.7, 102, 94, 98.5% [2021-09] | 101, 111, 86, 83, 115, 95.1, 80.3, 107, 99.9, 84.5, 100% [2021-08] and 88.5, 64.5, 61.8, 90.2, 87.2, 67.3% [2021-09] | 110, 114, 77.3, 87.4, 113, 86.6, 84.4, 99.8, 105, 96.6, 82.6% [2021-08] and 92.2, 74.1, 77.4, 105, 92.3, 81.6% [2021-09] | 103, 0.91, 0.15, 0.17, 0.19, 0.13, 0.35, 0.14, 0.34, 0.41% [2021-08] and 0.15, 0.14, 0.2, 0.18% [2021-09] | – | IC50 (run of 08/19/2021): 1.64 µM and 5.74, 1.89, 1.5, 1.63 µM [2021-08]
8 | CC1OCC2(CCN(c3cnc(Sc4ccnc(N)c4Cl)c(N)n3)CC2)C1N (stereo unspecified) | 57.4, 87.8, 74.7, 77.6, 88.5, 83.7, 85.7, 81.1, 76.6, 71, 73.2% [2021-08] and 80.8, 93.8, 75.9, 76, 81.1, 84.9, 73.7, 78.1% [2021-09] | 62.4, 89.5, 86.5, 66.5, 72.6, 72, 78.7, 76.4, 69.1, 62.5, 60.5% [2021-08] and 65.8, 81, 73.7, 74.6, 65.3, 69.1, 52.5, 73% [2021-09] | 100, 108, 105, 62.6, 56.4, 67.3, 68.8, 72.1, 64.6, 69.7, 73.4% [2021-08] and 82.5, 61.2, 58.8, 69.9, 55.8, 73.7, 49.7, 79.6% [2021-09] | 56.8, 76.7, 62.6, 51.4, 58.8, 64, 65.1, 67.4, 71.2, 59.4, 55.5% [2021-08] and 59.6, 75, 56.2, 62.8, 70.2, 78.9, 42.5, 66.7, 55.3% [2021-09] | 62.9, 107, 71.1, 56.5, 64.3, 78, 70.9, 93.7, 76.9, 62.2, 55.7% [2021-08] and 62.3, 57.2, 61.1, 63.6, 62, 68, 46.5, 71.8, 64.6% [2021-09] | IC50 (run of 09/02/2021): > 10 µM and 593 nM
9 | C=CC(=O)N1CCN(c2nc(=O)n(-c3c(C)ccnc3C(C)C)c3nc(-c4c(O)cccc4F)c(F)cc23)C(C)C1 (stereo unspecified) | 118, 97.4, 98.8 (2×), 115, 104, 109 (2×), 105, 91.5, 88.3% [2021-08] and 85.9, 103 (2×), 101, 108, 104% [2021-09] | 111, 114, 101 (2×), 95, 105, 131, 108, 103, 94.1, 94.9% [2021-08] and 98, 100, 93.6, 101, 98.2, 98.9% [2021-09] | 90.8, 110, 102, 94, 104, 114, 107, 91.2, 93.8, 109, 100% [2021-08] and 83.9, 92.6, 89.4, 99.6, 115, 104% [2021-09] | 77.5, 106, 89.5, 125, 83.8, 87.5, 84.8, 103, 86.6, 90.2, 89.6% [2021-08] and 76, 102 (2×), 74.5, 107, 52.8% [2021-09] | 71.1, 70, 73, 114, 59.7, 61.7, 42.7, 43.6, 52.2, 47.7, 57.3% [2021-08] and 46.9, 48.3, 46, 64.9, 72.8, 40.1% [2021-09] | IC50 (run of 08/26/2021): 8.19 µM, 8.78 µM, > 10 µM, 9.37 µM; IC50 (run of 09/02/2021): 8.83 µM, 9.63 µM, 8.62 µM, > 10 µM, 4.05 µM
10 | C=CC(=O)N1CCN(c2nc(OCC3CCCN3C)nc3c2CCN(c2cccc4cccc(C)c24)C3)CC1CC#N (stereo unspecified) | 111, 102, 95.5, 109 (2×), 114, 89.9, 99, 86.9, 97.7, 89.6% [2021-08] and 108, 80.9, 98.6, 82.2, 105% [2021-09] | 106, 109, 101, 97.8, 121, 96.2, 105, 80.6, 96, 111, 93.2% [2021-08] and 131, 93.7, 93.3, 65.8, 87.4% [2021-09] | 131, 108, 95.2, 88.5, 122, 85, 97.1, 82.1, 93.8, 80, 106% [2021-08] and 101, 82.8, 84.5, 67.3, 89.2% [2021-09] | 122, 19.1, 33.2, 27.7, 11, 14.4, 0.62, 8.46, 0.35, 0.57, 12.4% [2021-08] and 0.48, 10.9, 4.99, 0.47, 0.3% [2021-09] | – | viability, T/C (compound alone 0.0316 µM): 106, 114, 110 (2×), 98, 92.7, 112, 89.9, 107, 90.2, 99.4% [2021-08] and 118, 93.6, 110, 94.6, 95% [2021-09]; IC50 (run of 08/19/2021): > 3.16 µM, 2.12 µM, 2.32 µM, 2.07 µM, 1.78 µM
11 | CCNC(=O)CC1N=C(c2ccc(Cl)cc2)c2cc(OC)ccc2-n2c(C)nnc21 (stereo unspecified) | 106, 84.2, 79.6, 89.5, 86.1% | – | – | – | – | IC50: 3.51 µM, > 10 µM, 3.28 µM, 9.3 µM, 6.19 µM
12 | COC(=O)c1ccc2c(C(=Nc3ccc(N(C)C(=O)CN4CCN(C)CC4)cc3)c3ccccc3)c(O)[nH]c2c1 | – | 73.6, 75.7, 122, 116, 119% | 86.2, 74.7, 125, 113, 114% | 68.7, 62.8, 95.2, 84.9, 82.7% | – | –
13 | COc1cc2nc(C)nc(NC(C)c3cc(N)cc(C(F)(F)F)c3)c2cc1OC1CCOC1 (stereo unspecified) | – | 89.5, 103 (2×), 75.3, 76.1, 94.1, 98.6, 87.5, 95, 96.1, 86.8% [2021-08] and 76.1, 81.4, 94.9, 86.6, 74.9% [2021-09] | 90.8, 102, 93.1 (2×), 83, 90.6, 99.5, 101, 96.1, 95.7, 93.3% [2021-08] and 87.5, 89.3, 107, 89, 66.5% [2021-09] | 93.3, 96.3, 66.1, 90.8, 102 (2×), 101, 95.5, 99.1, 93.2, 84.8% [2021-08] and 92.6, 105, 108, 99.9, 66.4% [2021-09] | 111, 114, 86.4, 89.9, 106, 99.8, 73.8, 117, 97.1, 79.4, 75.1% [2021-08] and 111, 116, 114, 117, 82.1% [2021-09] | –

From PubChem BioAssay AID1963857 (Molecular Pharmacology Branch, DTP, NCI, 2024)
